Hit rate of the full screen: of about 48,000 compounds, about 120 (0.25%) were called active. Inconclusive results (about 4%) are left out. Calls come from the whole dose curve; as a rule, active = well fitted activation curve with a large enough effect; inconclusive = small, poorly fitted or top-dose-only effect, or another doubt; inactive = no such curve, though single readings can be large or run the other way. This is one part of the list.

A short description of the assay: Primary qHTS for Identification of Small Molecule Activators of Huntingtin-Antisense Promoter Activity. Note: nearly all actives have a fitted effect of over 55% in size. The settings on record: HEK293 HTT-AS promoter firefly luciferase reporter (activity 0% = vehicle and -100% = no light), 24 h; series mostly up to 57.5 µM; activity change, positive = activation: at the top concentration. The essentials:
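HEK293 cells carrying firefly luciferase reporters were seeded at 2,500 per well in Opti-MEM and cultured for 24 h. They were then treated with compounds at up to 57.5 uM final for 24 h at 37 degrees C before Dual-Glo luminescence readout.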
In general terms: qHTS replaces the single test concentration by a dilution series.
In the case of `O=C(Nc1ccc2nc(SCCOc3ccccc3Cl)sc2c1)c1ccco1`, the “activity change, positive = activation” value is inactive: -24%. As for `Cc1nnc(N2CCN(c3cccc(Cl)c3)CC2)c2c1nnn2Cc1ccc(F)cc1`, the “activity change, positive = activation” value was inactive: 5.71%. `COc1cccc(-c2nn(C)c3sc(C(=O)NCCc4cccc(C)c4)cc23)c1`: the “activity change, positive = activation” value is inactive: -28.1%. Turning to `CCOC(=O)C1CCCN(C(=O)Cn2ncc3c(C)n(Cc4ccc(F)cc4)c(C)c3c2=O)C1` (stereo unspecified), the “activity change, positive = activation” value is inactive: -39.9%. `CCOc1ccc(OCC)c(NC(=O)c2cnn(-c3ccc(F)cc3)c2C2CCN(C(=O)OC(C)(C)C)CC2)c1`: the “activity change, positive = activation” value is inactive: -3.36%. Take `Cn1c(NCCN(CCO)CCCc2ccc([N+](=O)[O-])cc2)cc(=O)n(C)c1=O`: the “activity change, positive = activation” value is inactive: -6%. As for `CCCNC(=O)Cn1ncc2c3ccccc3n(CCC)c2c1=O`, the figure is inactive: -15.7%. As to `Cc1ccc(C)c(CN2C(=O)c3ccccc3S(=O)(=O)c3ccc(C(=O)N4CCCCCC4)cc32)c1`, the “activity change, positive = activation” value was inactive: -36.9%.

As to `c1ccc2c(Cc3c[nH]c4ccccc34)c[nH]c2c1`, the “activity change, positive = activation” value was inactive: -24.5%.

`O=C(NCC(c1ccco1)S(=O)(=O)c1cccs1)c1ccc(F)cc1` (stereo unspecified): the “activity change, positive = activation” value was inactive: 17.3%.

For `CC(=O)Nc1ccc(C2Sc3ccccc3NC3=C2C(=O)c2ccccc23)cc1` (stereo unspecified), the “activity change, positive = activation” value is inactive: 29%. Turning to `CCOC(=O)c1ccc2oc(=O)n(Cc3ccccc3)c2c1`, the “activity change, positive = activation” value was inactive: -8.74%. For `Cc1oc2ncn(CC(C)C)c(=O)c2c1C(=O)NCCCN1CCCCC1` the value was inactive: -7.94%; for `COc1cccc(NC(=O)CSc2ncc(S(=O)(=O)c3ccc(C)c(C)c3)c(=O)[nH]2)c1`, inactive: -3.98%; for `O=C(COc1ccc(F)cc1)Nc1ccc2nc(SCC(=O)N3CCc4ccccc43)sc2c1`, inactive: -11.7%. As for `COc1ccccc1CNC(=O)c1ccc(N2CCCC2)c(NC(=O)NCCC(C)C)c1`, the “activity change, positive = activation” value was inactive: -3.07%.

As to `Cc1cc(C)c(NC(=O)c2cc3sc(Cl)cc3n2C)c(C)c1`, the “activity change, positive = activation” value is inactive: 11.9%. As to `CC(=O)c1ccc(N2CCN(S(=O)(=O)c3ccc(-c4cc(C(F)(F)F)on4)s3)CC2)cc1`, the “activity change, positive = activation” value is inactive: -18.1%. For the compound `Cc1ccccc1OCC(=O)OCc1cc(=O)n2nc(C3CCCCC3)sc2n1`, the “activity change, positive = activation” value was inactive: 4.89%. As for `CCc1c(-c2ccccc2)nc2ccccc2c1C(=O)NCCc1ccccc1`, the figure is inactive: -6.61%. In the case of `Cc1csc2nc(COc3ccccc3NC(=O)c3ccco3)cc(=O)n12`, the “activity change, positive = activation” value was inactive: 0.904%. In the case of `CSc1cccc(NC(=O)Cn2c3ncccc3c(=O)n2-c2ccc(C)cc2)c1`, the “activity change, positive = activation” value was inactive: -5.03%. As for `CC(=O)N1CCc2c(sc3c2c(=O)n(-c2ccccc2)c(=O)n3CC(=O)Nc2ccccc2C)C1`, the “activity change, positive = activation” value is inactive: -16.3%.

Consider `COc1ccc(NC(=O)c2oc3ccccc3c2NC(=O)c2cc3ccccc3o2)cc1`, for which the “activity change, positive = activation” value is inactive: 8.96%.

`Cc1ccccc1S(=O)(=O)Cc1ccc(C(=O)NC2CCCCC2)o1`: the “activity change, positive = activation” value is inactive: -29.5%. In the case of `CCOc1ccc(NS(=O)(=O)c2ccc3[nH]cc(C(=O)N(C)Cc4ccccc4)c(=O)c3c2)cc1`, the “activity change, positive = activation” value was inactive: -10.5%.

Values taken from PubChem BioAssay AID1508624 (National Center for Advancing Translational Sciences (NCATS), 2021).
